# B1: gemtuzumab conjugate of Compound (XL) (conjugate, chains of the INN, looked up)
# heavy: EVQLVQSGAEVKKPGSSVKVSCKASGYTITDSNIHWVRQAPGQSLEWIGYIYPYNGGTDYNQKFKNRATLTVDNPTNTAYMELSSLRSEDTAFYYCVNGNPWLAYWGQGTLVTVSSASTKGPSVFPLAPCSRSTSESTAALGCLVKDYFPEPVTVSWNSGALTSGVHTFPAVLQSSGLYSLSSVVTVPSSSLGTKTYTCNVDHKPSNTKVDKRV[no letters for human IgG4 Fc with S228P (EU numbers)]
# light: DIQLTQSPSTLSASVGDRVTITCRASESLDNYGIRFLTWFQQKPGKAPKLLMYAASNQGSGVPSRFSGSGSGTEFTLTISSLQPDDFATYYCQQTKEVPWSFGQGTKVEVKRTVAAPSVFIFPPSDEQLKSGTASVVCLLNNFYPREAKVQWKVDNALQSGNSQESVTEQDSKDSTYSLSSTLTLSKADYEKHKVYACEVTHQGLSSPVTKSFNRGEC
# modifications: conjugated to Compound (XL)
# Experiments:
# MV-4-11 cells = test: In vitro MV-4-11 antiproliferation assay (alamarBlue); assay type: cell-based, human; settings: 4 days
# Protocol: MV-4-11 cells were exposed to varying concentrations of conjugates or antibodies for 4 days with/without 1 μM of the blocking antibody Gemtuzumab or Trastuzumab. Viability of the cells was determined by alamarBlue. The antiproliferative activity of the gemtuzumab conjugate of Compound (XL) and the unconjuaged BRD4 degrader small molecule Compound 40-3 are showin in FIG. 13. […] The antibodies alone were not active up to […].
# BRD4 = molecular target: T1, BRD4 (Homo sapiens, UniProt O60885); test: In vitro BRD4 protein degradation assay (Western blot); assay type: cell-based; settings: MV4-11 cells, overnight
# T1 construct: endogenous in cells; host or cells: MV4-11
# Protocol: The ability of the claimed conjugates to degrade BRD4 was measured using an in vitro degradation assay. MV4-11 cells were incubated with test article overnight. Protein was loaded to 4-12% NuPAGE Bis-Tris gel. Western blot with rabbit anti-BRD4 Ab (Cell Signaling #13440) was performed at 1:1,000 dilution and re-blotting with β-actin HRP (Cell Signaling #5125) was performed at 1:1,000. The degradation activity of the gemtuzumab conjugate Compound (XL) and the unconjuaged BRD4 degrader small molecule Compound 40-3 are shown in FIG. 14.
molecule,measurement,setting,value
B1,antiproliferative activity against MV-4-11 cells (in words),MV-4-11 cells; test article alone,highly active
same,loss of activity when CD33 surface antigens were presaturated with gemtuzumab (times less active),MV-4-11 cells; with 1 μM blocking antibody Gemtuzumab,~1000
same,effect of preblocking with trastuzumab on conjugate activity,MV-4-11 cells; with 1 μM blocking antibody Trastuzumab (no HER2 expression in MV-4-11),no effect on conjugate activity
same,reduction in BRD4 protein band intensity,BRD4; 10 nM,> 70%
same,concentration dependence of BRD4 depletion,BRD4,dependent on conjugate concentration

# Source: patent publication US20250144230A1, “LINKERS FOR USE IN ANTIBODY DRUG CONJUGATES” (Orum Therapeutics, Inc., priority 2021, published 2025)
